What was measured:
Assay in all cases: cell-based or functional assay
[1] = target: envelope of standard panel pseudotyped virus SVPB12 (HIV-1 subtype B)
[2] = target: envelope of standard panel pseudotyped virus SVPB8 (HIV-1 subtype B)
[3] = target: envelope of standard panel pseudotyped virus SVPB14 (HIV-1 subtype B)
[4] = target: envelope of standard panel pseudotyped virus SVPB11 (HIV-1 subtype B)
[5] = target: envelope of standard panel pseudotyped virus SVPB16 (HIV-1 subtype B)
[6] = target: envelope of standard panel pseudotyped virus SVPB6 (HIV-1 subtype B)
[7] = target: envelope of standard panel pseudotyped virus SVPB18 (HIV-1 subtype B)
[8] = target: envelope of standard panel pseudotyped virus SVPB13 (HIV-1 subtype B)
[9] = target: envelope of standard panel pseudotyped virus SVPB17 (HIV-1 subtype B)
[10] = target: envelope of standard panel pseudotyped virus SVPB5 (HIV-1 subtype B)
[11] = target: envelope of standard panel pseudotyped virus SVPB15 (HIV-1 subtype B)
[12] = target: envelope of HIV-1 strain JR-FL (JRFLwt), on virus (HIV-1 strain JR-FL); parameters: unit not given beside the values
[13] = target: envelope of HIV-1 clinically isolated strain MTA; parameters: unit not given beside the values
[14] = target: envelope of HIV-2 strain EHO (HIV-2 strain EHO); parameters: unit not given beside the values
[15] = target: envelope of HIV-1 clinically isolated strain kKGO; parameters: unit not given beside the values
[16] = target: envelope of HIV-1 clinically isolated strain YKI; parameters: unit not given beside the values
[17] = target: envelope of HIV-1 strain BaL (HIV-1 strain BaL); parameters: unit not given beside the values
[18] = target: envelope of HIV-1 clinically isolated strain MOKW; parameters: unit not given beside the values
[19] = target: envelope of HIV-1 clinically isolated strain KMT; parameters: unit not given beside the values
[20] = target: envelope of HIV-1 clinically isolated strain YIS; parameters: unit not given beside the values
[21] = target: envelope of HIV-1 clinically isolated strain MIS; parameters: unit not given beside the values
[22] = target: envelope of HIV-1 clinically isolated strain TR43; parameters: unit not given beside the values

B1: 49G2 (antibody, IgG1, V domains shown)
VH: [letters of about 100 residues omitted]GPIAAATHAFDIWGQGTMVTVSS
VL: QSVLTQPPSASGTPGQRVTISCSGSGSNIGSNTVNWYQQFPGTAPKLLIYNNNQRPSGVPDRFSGSKSGTSASLAISGLQSADEADYYCATWDDSLDGWVFGGGTKLTVLG
IC50 in TZM-bl cells [1]: 7.8 mg/L
IC50 in TZM-bl cells [2]: > 50 mg/L
IC50 in TZM-bl cells [3]: > 50 mg/L
IC50 in TZM-bl cells [4]: > 50 mg/L
IC50 in TZM-bl cells [5]: 7.8 mg/L
IC50 in TZM-bl cells [6]: > 50 mg/L
IC50 in TZM-bl cells [7]: > 50 mg/L
IC50 in TZM-bl cells [8]: > 50 mg/L
IC50 in TZM-bl cells [9]: > 50 mg/L
IC50 in TZM-bl cells [10]: 2.1 mg/L
IC50 in TZM-bl cells [11]: > 50 mg/L
IC50, neutralizing activity (MTT assay) [12]: 23
IC50, neutralizing activity (MTT assay) [13]: 0.9
IC50, neutralizing activity (MTT assay) [14]: > 50
IC50, neutralizing activity (MTT assay) [15]: 9.6
IC50, neutralizing activity (MTT assay) [16]: 1
IC50, neutralizing activity (MTT assay) [17]: > 50
IC50, neutralizing activity (MTT assay) [18]: 2.2
IC50, neutralizing activity (MTT assay) [19]: > 50
IC50, neutralizing activity (MTT assay) [20]: 1.8
IC50, neutralizing activity (MTT assay) [21]: 0.25
IC50, neutralizing activity (MTT assay) [22]: > 50
